# Test results: the supplement of paper PMC8728848
# Some of the results follow.
# Columns and labels:
# Experiment in all cases: glycan array binding signal (z-score within array); higher = stronger binding
# Details in all cases: glycan notation: IUPAC condensed, linker removed
# [1] = target: Neu5Ac(a2-6)GlcNAc(b1-4)GlcNAc(b1-4)GlcNAc
# Outline: (§1)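 From the Consortium for Functional Glycomics database, 3228 arrays were curated, keeping only those whose protein sequence was available. Binding is given as a within-array Z-score averaged across arrays sharing a protein sequence and across linkers. Negative Z-scores can be read as non-binding.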
# [2] = target: Neu5Ac(a2-8)Neu5Ac
# Outline: as §1
# [3] = target: Neu5Ac(a2-8)Neu5Ac(a2-3)Gal(b1-3)GalNAc(b1-4)[Neu5Ac(a2-3)]Gal(b1-4)Glc
# Outline: as §1
# [4] = target: Neu5Ac(a2-8)Neu5Ac(a2-3)Gal(b1-3)GalNAc(b1-4)[Neu5Ac(a2-8)Neu5Ac(a2-3)]Gal(b1-4)Glc
# Outline: as §1
# [5] = target: Neu5Ac(a2-8)Neu5Ac(a2-3)Gal(b1-4)Glc
# Outline: as §1
# [6] = target: Neu5Ac(a2-8)Neu5Ac(a2-3)Gal(b1-4)GlcNAc
# Outline: as §1
# [7] = target: Neu5Ac(a2-8)Neu5Ac(a2-3)[Gal(b1-3)GalNAc(b1-4)]Gal(b1-4)Glc
# Outline: as §1
# [8] = target: Neu5Ac(a2-8)Neu5Ac(a2-3)[GalNAc(b1-4)]Gal(b1-4)Glc
# Outline: as §1
# [9] = target: Neu5Ac(a2-8)Neu5Ac(a2-8)Neu5Ac
# Outline: as §1
# [10] = target: Neu5Ac(a2-8)Neu5Ac(a2-8)Neu5Ac(a2-3)Gal(b1-4)Glc
# Outline: as §1
# [11] = target: Neu5Ac(a2-8)Neu5Ac(a2-8)Neu5Ac(a2-3)[Gal(b1-3)GalNAc(b1-4)]Gal(b1-4)Glc
# Outline: as §1
# [12] = target: Neu5Ac(a2-8)Neu5Ac(a2-8)Neu5Ac(a2-3)[GalNAc(b1-4)]Gal(b1-4)Glc
# Outline: as §1
# [13] = target: Neu5Ac(a2-8)Neu5Ac(a2-8)Neu5Ac(a2-8)Neu5Ac(a2-3)[GalNAc(b1-4)]Gal(b1-4)Glc
# Outline: as §1
# [14] = target: Neu5Ac(a2-8)Neu5Gc(a2-3)Gal(b1-4)GlcNAc
# Outline: as §1
# [15] = target: Neu5Ac(b2-6)Gal(b1-4)GlcNAc
# Outline: as §1
# [16] = target: Neu5Ac(b2-6)GalNAc
# Outline: as §1
# [17] = target: Neu5Ac9Ac(a2-3)Gal(b1-3)GlcNAc
# Outline: as §1
# [18] = target: Neu5Ac9Ac(a2-3)Gal(b1-4)GlcNAc
# Outline: as §1
# [19] = target: Neu5Ac9Ac(a2-6)Gal(b1-4)GlcNAc
# Outline: as §1
# [20] = target: Neu5Gc(a2-3)Gal(b1-3)GlcNAc
# Outline: as §1
# [21] = target: Neu5Gc(a2-3)Gal(b1-3)[Fuc(a1-4)]GlcNAc
# Outline: as §1
# [22] = target: Neu5Gc(a2-3)Gal(b1-4)Glc
# Outline: as §1
# [23] = target: Neu5Gc(a2-3)Gal(b1-4)GlcNAc
# Outline: as §1
# [24] = target: Neu5Gc(a2-3)Gal(b1-4)GlcNAc(b1-3)Gal(b1-4)GlcNAc(b1-2)Man(a1-3)[Neu5Gc(a2-3)Gal(b1-4)GlcNAc(b1-3)Gal(b1-4)GlcNAc(b1-2)Man(a1-6)]Man(b1-4)GlcNAc(b1-4)GlcNAc
# Outline: as §1
# [25] = target: Neu5Gc(a2-3)Gal(b1-4)[Fuc(a1-3)]GlcNAc
# Outline: as §1
# [26] = target: Neu5Gc(a2-6)Gal(b1-4)GlcNAc
# Outline: as §1
# [27] = target: Neu5Gc(a2-6)GalNAc
# Outline: as §1
# [28] = target: Neu5Gc(a2-8)Neu5Ac(a2-3)Gal(b1-4)GlcNAc
# Outline: as §1
# [29] = target: Neu5Gc(a2-8)Neu5Gc(a2-3)Gal(b1-4)GlcNAc
# Outline: as §1
# [30] = target: Neu5Gc(a2-8)Neu5Gc(a2-3)Gal(b1-4)GlcNAc(b1-3)Gal(b1-4)GlcNAc
# Outline: as §1
# [31] = target: Neu5Gc(a2-8)Neu5Gc(a2-6)Gal(b1-4)GlcNAc
# Outline: as §1
# [32] = target: Neu5Gc(b2-6)Gal(b1-4)GlcNAc
# Outline: as §1
binder,measurement,setting,value
"Gal-9-hFc (Mus musculus), O08573-2 (protein) MALFSAQSPYINPIIPFTGPIQGGLQEGLQVTLQGTTKSFAQRFVVNFQNSFNGNDIAFHFNPRFEEGGYVVCNTKQNGQWGPEERKMQMPFQKGMPFELCFLVQRSEFKVMVNKKFFVQYQHRVPYHLVDTIAVSGCLKLSFITFQTQNFRPAHQAPMAQTTIHMVHSTPGQMFSTPGIPPVVYPTPAYTIPFYTPIPNGLYPSKSIMISGNVLPDATRFHINLRCGGDIAFHLNPRFNENAVVRNTQINNSWGQEERSLLGRMPFSRGQSFSVWIICEGHCFKVAVNGQHMCEYYHRLKNLQDINTLEVAGDIQLTHVQT",glycan array binding signal (z-score),[1],0.481
same,glycan array binding signal (z-score),[2],-0.108
same,glycan array binding signal (z-score),[3],-0.279
same,glycan array binding signal (z-score),[4],-0.297
same,glycan array binding signal (z-score),[5],-0.553
same,glycan array binding signal (z-score),[6],-0.494
same,glycan array binding signal (z-score),[7],-0.205
same,glycan array binding signal (z-score),[8],-0.089
same,glycan array binding signal (z-score),[9],2.03
same,glycan array binding signal (z-score),[10],-0.08
same,glycan array binding signal (z-score),[11],-0.323
same,glycan array binding signal (z-score),[12],-0.076
same,glycan array binding signal (z-score),[13],-0.366
same,glycan array binding signal (z-score),[14],-0.49
same,glycan array binding signal (z-score),[15],-0.344
same,glycan array binding signal (z-score),[16],-0.655
same,glycan array binding signal (z-score),[17],-0.299
same,glycan array binding signal (z-score),[18],-0.435
same,glycan array binding signal (z-score),[19],-0.538
same,glycan array binding signal (z-score),[20],-0.398
same,glycan array binding signal (z-score),[21],-0.331
same,glycan array binding signal (z-score),[22],0.367
same,glycan array binding signal (z-score),[23],-0.414
same,glycan array binding signal (z-score),[24],-0.365
same,glycan array binding signal (z-score),[25],-0.358
same,glycan array binding signal (z-score),[26],-0.271
same,glycan array binding signal (z-score),[27],-0.208
same,glycan array binding signal (z-score),[28],-0.447
same,glycan array binding signal (z-score),[29],-0.504
same,glycan array binding signal (z-score),[30],-0.401
same,glycan array binding signal (z-score),[31],-0.482
same,glycan array binding signal (z-score),[32],-0.236
